Values joined by “and” are separate entries in the source; they are usually repeats but may differ in a detail not shown here. Identical values can stand only once. The inconclusive results got no clear call from the source; some entries with a clear call stand among them for comparison. For part of these data: Where the call is inconclusive, the potency comes from a doubtful curve fit. Active and inactive are the calls of the source. Calls come from the whole dose curve; as a rule, active = well fitted curve in the direction sought with a large enough effect in the repeat runs; inconclusive = weak or mixed curves; inactive = no such curve, though single readings can be large; an effect the other way counts as inactive or inconclusive.
Tests used:
[1] = Caspase-3/7 induction in HepG2 cells by small molecules, qHTS assay (AID 1346978); note: potency is the fitted concentration of half-maximal effect; nearly all actives have a fitted effect of over 15% in size
How it was run: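 Caspase-3/7 induction was measured by Caspase-Glo 3/7 luminescence (30 min, room temperature) after a 17 hr compound exposure of wild-type HepG2 cells seeded at 2,000 per well and pre-incubated 5 hr.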

[2] = molecular target: Cytochrome P450 2D6 (Homo sapiens) (UniProt P10635); assay: Cytochrome P450 Family 2 Subfamily D Member 6 (CYP2D6) small molecule antagonists: luciferase reporter qHTS assay (AID 1671196); note: nearly all actives have a fitted effect of over 50% in size; note: potency is the fitted concentration of half-maximal effect
Chain of UniProt P10635 (P10635 whole entry, looked up): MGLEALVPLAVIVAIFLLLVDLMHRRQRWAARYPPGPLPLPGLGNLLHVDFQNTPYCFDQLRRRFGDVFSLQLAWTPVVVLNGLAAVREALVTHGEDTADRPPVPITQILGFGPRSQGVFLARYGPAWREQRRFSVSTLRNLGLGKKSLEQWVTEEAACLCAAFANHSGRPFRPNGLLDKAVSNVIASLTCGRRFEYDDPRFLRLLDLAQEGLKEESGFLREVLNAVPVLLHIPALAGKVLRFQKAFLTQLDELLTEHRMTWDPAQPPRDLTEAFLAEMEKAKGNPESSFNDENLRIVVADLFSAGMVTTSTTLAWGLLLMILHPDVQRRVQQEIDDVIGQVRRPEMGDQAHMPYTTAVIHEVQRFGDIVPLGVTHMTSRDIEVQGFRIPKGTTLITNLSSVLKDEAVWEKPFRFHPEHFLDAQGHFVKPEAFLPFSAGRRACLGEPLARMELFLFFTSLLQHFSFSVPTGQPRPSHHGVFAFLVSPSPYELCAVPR
How it was run: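 CYP2D6 activity was followed as luminescence from its luciferin product after a 1 h NADPH-driven reaction at room temperature. Enzyme-substrate mix and compound were pre-incubated for 10 min, and the signal was read 20 min after adding detection reagent.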

[3] = molecular target: Cytochrome P450 1A2 (Homo sapiens) (UniProt P05177); assay: Cytochrome P450 Family 1 Subfamily A Member 2 (CYP1A2) small molecule antagonists: luciferase reporter qHTS assay (AID 1671199); note: nearly all actives have a fitted effect of over 50% in size; note: potency is the fitted concentration of half-maximal effect
Chain of UniProt P05177 (P05177 whole entry, looked up): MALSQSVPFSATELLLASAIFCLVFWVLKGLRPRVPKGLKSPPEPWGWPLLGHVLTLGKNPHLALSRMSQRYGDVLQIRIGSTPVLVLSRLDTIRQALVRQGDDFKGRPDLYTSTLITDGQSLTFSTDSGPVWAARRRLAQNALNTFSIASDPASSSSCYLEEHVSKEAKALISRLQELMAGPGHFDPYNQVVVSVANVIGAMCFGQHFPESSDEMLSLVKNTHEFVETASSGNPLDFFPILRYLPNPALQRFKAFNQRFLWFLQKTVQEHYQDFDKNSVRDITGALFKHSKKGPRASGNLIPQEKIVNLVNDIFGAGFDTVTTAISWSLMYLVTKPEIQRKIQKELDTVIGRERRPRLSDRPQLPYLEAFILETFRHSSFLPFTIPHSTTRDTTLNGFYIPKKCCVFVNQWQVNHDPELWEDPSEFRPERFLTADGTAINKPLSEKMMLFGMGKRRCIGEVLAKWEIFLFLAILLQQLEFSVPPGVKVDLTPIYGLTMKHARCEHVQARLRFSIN
How it was run: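 Luminescence from luciferin formed by CYP1A2 from a proluciferin substrate, read 20 min after detection reagent. Compound was pre-incubated 10 min with enzyme-substrate, and reaction started with NADPH regeneration solution for 1 h at room temperature; furafylline control.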

[4] = Caspase-3/7 induction in CHO-K1 cells by small molecules, qHTS cell viability counter screen (AID 1346979); note: nearly all actives have a fitted effect of over 35% in size; note: potency is the fitted concentration of half-maximal effect
How it was run: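 Cytotoxicity counter screen: CellTiter-Fluor added to compound-treated wild-type CHO-K1 cells at 16 h (37C, 5% CO2), fluorescence measured 1 h later; same wells as caspase-3/7 measurement.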

[5] = Caspase-3/7 induction in HepG2 cells by small molecules, qHTS cell viability counter screen (AID 1346981); note: potency is the fitted concentration of half-maximal effect; nearly all actives have a fitted effect of over 30% in size
How it was run: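 CellTiter-Fluor fluorescence measured viability in the same wells used for Caspase-Glo 3/7. HepG2 (wild type) at 2,000 cells/well were pre-incubated 5 hr, dosed, and given reagent at 16 hr, with 1 hr further at 37C.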

[6] = molecular target: Cytochrome P450 2C9 (Homo sapiens) (UniProt P11712); assay: Cytochrome P450 Family 2 Subfamily C Member 9 (CYP2C9) small molecule antagonists: luciferase reporter qHTS assay (AID 1671198); note: potency is the fitted concentration of half-maximal effect; nearly all actives have a fitted effect of over 50% in size
Chain of UniProt P11712 (P11712 whole entry, looked up): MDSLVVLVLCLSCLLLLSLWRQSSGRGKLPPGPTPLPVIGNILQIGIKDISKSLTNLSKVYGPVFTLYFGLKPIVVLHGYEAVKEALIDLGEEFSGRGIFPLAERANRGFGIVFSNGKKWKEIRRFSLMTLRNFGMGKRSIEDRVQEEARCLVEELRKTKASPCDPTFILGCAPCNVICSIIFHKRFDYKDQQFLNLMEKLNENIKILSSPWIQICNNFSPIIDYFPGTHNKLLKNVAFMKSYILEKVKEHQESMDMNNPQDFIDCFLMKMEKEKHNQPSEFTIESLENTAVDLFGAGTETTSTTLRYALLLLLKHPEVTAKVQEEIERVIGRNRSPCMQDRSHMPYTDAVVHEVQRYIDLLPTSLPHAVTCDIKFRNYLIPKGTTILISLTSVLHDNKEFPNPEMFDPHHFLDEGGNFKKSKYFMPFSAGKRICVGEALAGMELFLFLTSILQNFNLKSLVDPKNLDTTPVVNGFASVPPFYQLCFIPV
How it was run: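 Enzyme-substrate mix preincubated with compound 10 min at room temperature; reaction started with NADPH regeneration solution, 1 h 37C. Luminescent luciferin product read after 20 min detection reagent.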

[7] = Caspase-3/7 induction in CHO-K1 cells by small molecules, qHTS assay (AID 1346980); note: nearly all actives have a fitted effect of over 15% in size; note: potency is the fitted concentration of half-maximal effect
How it was run: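 Luminescent Caspase-Glo 3/7 read (30min, room temperature) quantified apoptosis induction. Cells were wild-type CHO-K1, treated with compound for 17hr at 37 C and 5% CO2.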

[8] = molecular target: Nuclear receptor subfamily 1 group I member 2 (Homo sapiens) (UniProt O75469); assay: Human pregnane X receptor (PXR) small molecule agonists, qHTS assay (AID 1346982); note: nearly all actives have a fitted effect of over 35% in size
Chain of UniProt O75469 (O75469 whole entry, looked up): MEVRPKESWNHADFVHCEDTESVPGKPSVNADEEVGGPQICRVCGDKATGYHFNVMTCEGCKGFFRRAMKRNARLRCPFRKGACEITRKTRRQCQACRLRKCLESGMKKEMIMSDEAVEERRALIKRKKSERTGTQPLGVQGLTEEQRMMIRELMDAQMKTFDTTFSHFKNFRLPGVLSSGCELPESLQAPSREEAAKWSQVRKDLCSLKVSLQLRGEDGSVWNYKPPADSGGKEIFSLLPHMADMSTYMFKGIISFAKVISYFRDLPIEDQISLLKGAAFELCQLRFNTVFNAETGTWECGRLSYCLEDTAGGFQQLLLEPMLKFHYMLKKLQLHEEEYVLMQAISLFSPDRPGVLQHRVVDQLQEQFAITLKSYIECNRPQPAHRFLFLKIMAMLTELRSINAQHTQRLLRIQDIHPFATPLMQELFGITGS
How it was run: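 Agonist mode: luminescence from ONE-Glo after 24 h compound exposure at 37C in HepG2 cells carrying hPXR-responsive CYP3A4 luciferase, plated in charcoal-stripped serum medium 5 h beforehand.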

[9] = molecular target: Cytochrome P450 3A4 (Homo sapiens) (UniProt P08684); assay: Cytochrome P450 Family 3 Subfamily A Member 4 (CYP3A4) small molecule antagonists: luciferase reporter qHTS assay (AID 1671201); note: potency is the fitted concentration of half-maximal effect; nearly all actives have a fitted effect of over 50% in size
Chain of UniProt P08684 (P08684 whole entry, looked up): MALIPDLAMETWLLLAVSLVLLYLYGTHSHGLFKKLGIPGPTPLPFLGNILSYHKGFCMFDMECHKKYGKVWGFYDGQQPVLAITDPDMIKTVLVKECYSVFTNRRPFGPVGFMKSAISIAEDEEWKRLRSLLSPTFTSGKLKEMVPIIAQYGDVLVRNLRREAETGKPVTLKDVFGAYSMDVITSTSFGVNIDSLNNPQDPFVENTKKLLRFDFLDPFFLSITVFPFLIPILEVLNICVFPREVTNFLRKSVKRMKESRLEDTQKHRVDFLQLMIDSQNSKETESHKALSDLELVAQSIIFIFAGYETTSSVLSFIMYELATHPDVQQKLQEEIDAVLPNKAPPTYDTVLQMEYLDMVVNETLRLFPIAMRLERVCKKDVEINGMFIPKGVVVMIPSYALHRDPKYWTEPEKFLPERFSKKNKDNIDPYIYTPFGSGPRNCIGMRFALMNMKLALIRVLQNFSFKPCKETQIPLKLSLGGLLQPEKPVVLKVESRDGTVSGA
How it was run: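 Recombinant human CYP3A4 converts a proluciferin substrate to luciferin over 1 h at room temperature after NADPH regeneration solution is added (compound preincubated 10 min); detection reagent stops reaction, luminescence read 20 min later as relative units.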

[10] = molecular target: Cytochrome P450 2C19 (Homo sapiens) (UniProt P33261); assay: Cytochrome P450 Family 2 Subfamily C Member 19 (CYP2C19) small molecule antagonists: luciferase reporter qHTS assay (AID 1671197); note: potency is the fitted concentration of half-maximal effect; nearly all actives have a fitted effect of over 65% in size
Chain of UniProt P33261 (P33261 whole entry, looked up): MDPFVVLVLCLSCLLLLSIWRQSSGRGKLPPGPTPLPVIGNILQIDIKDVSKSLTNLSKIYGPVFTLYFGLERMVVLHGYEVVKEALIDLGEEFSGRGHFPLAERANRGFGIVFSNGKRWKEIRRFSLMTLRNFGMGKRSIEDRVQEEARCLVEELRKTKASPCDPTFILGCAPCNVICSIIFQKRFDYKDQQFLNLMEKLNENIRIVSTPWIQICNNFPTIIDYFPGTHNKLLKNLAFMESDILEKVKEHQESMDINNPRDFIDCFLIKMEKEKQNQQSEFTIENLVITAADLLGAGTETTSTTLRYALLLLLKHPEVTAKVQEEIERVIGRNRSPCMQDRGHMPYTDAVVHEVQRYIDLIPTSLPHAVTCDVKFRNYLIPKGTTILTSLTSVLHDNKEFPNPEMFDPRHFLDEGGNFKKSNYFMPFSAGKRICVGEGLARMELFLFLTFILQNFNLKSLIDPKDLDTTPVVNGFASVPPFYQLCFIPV
How it was run: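 P450-Glo CYP2C19 system: enzyme-substrate mix with compound 10 min at room temperature, then NADPH regeneration solution, 1 h at 37C. Proluciferin-to-luciferin conversion detected by luminescence after 20 min with detection reagent; ketoconazole as positive control.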

[11] = molecular target: Voltage-gated inwardly rectifying potassium channel KCNH2 (Homo sapiens) (UniProt Q12809); assay: Human Ether-a-go-go-Related Gene (hERG) channel small molecule antagonists: fluorescence cell-based qHTS assay (AID 1671200)
Chain of UniProt Q12809 (Q12809 whole entry, looked up): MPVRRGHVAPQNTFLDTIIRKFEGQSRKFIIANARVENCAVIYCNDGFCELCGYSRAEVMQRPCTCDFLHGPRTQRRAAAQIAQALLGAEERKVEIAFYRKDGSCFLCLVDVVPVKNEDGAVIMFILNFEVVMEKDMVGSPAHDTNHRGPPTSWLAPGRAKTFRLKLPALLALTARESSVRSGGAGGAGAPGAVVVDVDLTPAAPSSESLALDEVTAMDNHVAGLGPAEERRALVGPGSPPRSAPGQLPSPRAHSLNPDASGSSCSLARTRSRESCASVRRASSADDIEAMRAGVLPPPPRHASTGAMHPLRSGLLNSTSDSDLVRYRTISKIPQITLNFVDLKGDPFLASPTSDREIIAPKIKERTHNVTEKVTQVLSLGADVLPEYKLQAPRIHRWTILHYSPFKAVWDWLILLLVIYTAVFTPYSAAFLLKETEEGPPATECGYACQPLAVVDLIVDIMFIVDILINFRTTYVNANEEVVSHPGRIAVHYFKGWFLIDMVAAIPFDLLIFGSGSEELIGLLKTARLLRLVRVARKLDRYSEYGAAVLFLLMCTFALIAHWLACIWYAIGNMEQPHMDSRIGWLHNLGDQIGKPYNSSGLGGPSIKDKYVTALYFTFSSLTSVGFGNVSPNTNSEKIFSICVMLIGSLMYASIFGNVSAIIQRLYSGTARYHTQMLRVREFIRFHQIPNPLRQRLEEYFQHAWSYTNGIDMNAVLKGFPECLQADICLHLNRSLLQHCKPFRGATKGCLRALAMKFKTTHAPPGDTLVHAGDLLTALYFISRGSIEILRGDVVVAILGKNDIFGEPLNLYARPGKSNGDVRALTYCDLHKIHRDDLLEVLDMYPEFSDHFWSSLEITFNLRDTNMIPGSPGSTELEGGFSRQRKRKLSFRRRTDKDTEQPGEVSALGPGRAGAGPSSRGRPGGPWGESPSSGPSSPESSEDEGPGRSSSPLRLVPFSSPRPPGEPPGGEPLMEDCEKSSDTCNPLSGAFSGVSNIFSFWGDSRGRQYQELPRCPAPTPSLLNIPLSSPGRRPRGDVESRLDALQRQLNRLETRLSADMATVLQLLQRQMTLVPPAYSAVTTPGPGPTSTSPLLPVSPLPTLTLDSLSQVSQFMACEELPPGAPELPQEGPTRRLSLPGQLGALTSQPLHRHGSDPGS
How it was run: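 Thallium flux as potassium surrogate: FluxOR II dye loaded 1 h at room temperature into hERG-expressing U2OS cells, then stimulus buffer added after 10 min. Kinetic 480 nm excitation/540 nm emission read, 2 min.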
Tags give direction and shape of the fitted curve.

For `Oc1ccc(Cc2ccccc2)cc1`, the Potency [1] was inconclusive: 63.5 µM [activator], the Potency [2] was inconclusive: 52.2 µM [inhibitor, partial curve] and the Potency [3] was inconclusive: 65.7 µM [inhibitor, partial curve, poor fit].

In the case of `COc1ccc(N=[N+]([O-])c2ccc(OC)cc2)cc1`, the Potency [4] was inconclusive: 67.9 µM [cytotoxic, single point], the Potency [5] was inconclusive: 67.9 µM [cytotoxic, partial curve, poor fit] and the Potency [2] was inconclusive: 17.7 µM [inhibitor, full curve]. The Potency [6] was inconclusive: 17.7 µM [inhibitor, full curve].

In the case of `O=C1CCC(=O)N1Cl`, the Potency [7] was “inactive”, the Potency [8] was “inactive” and the Potency [3] was inconclusive: 89.4 µM [inhibitor, partial curve].

For `CCOc1ccc(N)c([N+](=O)[O-])c1`, the Potency [4] was inconclusive: 68.6 µM [cytotoxic, single point] and the Potency [9] was inconclusive: 79.6 µM [inhibitor, single point].

In the case of `CCCCCC/C=C\CCCCCCCC(=O)O`, the Potency [4] was inconclusive: 77 µM [cytotoxic, partial curve, poor fit], the Potency [2] was “inactive” and the Potency [10] was active: 50.2 µM. The Potency [3] was “inactive”.

With `Cc1ccc(N)cc1S(=O)(=O)O` the Potency [4] was “inactive”, the Potency [2] was inconclusive: 50.2 µM [inhibitor, partial curve, poor fit] and the Potency [10] was active: 79.6 µM.

For `[Cl][Pt-2]([Cl])([Cl])[Cl]`, the Potency [4] was inconclusive: 61.4 µM [cytotoxic, single point] and the Potency [11] was inconclusive: 34.8 µM [inhibitor, partial curve].

For `OCC1CCC(CO)CC1` (centres undefined), the Potency [4] was “inactive” and the Potency [3] was “inactive”.

For `CCCCCCCCCCCCCCCC(=O)OC[C@H](O)[C@H]1OC(=O)C(O)=C1O`, the Potency [4] was inconclusive: 54.5 µM [cytotoxic, partial curve, poor fit] and the Potency [6] was inconclusive: 17.8 µM [inhibitor, full curve].

In the case of `Cc1c(C(=O)O)cccc1[N+](=O)[O-]`, the Potency [4] was “inactive” and the Potency [3] was “inactive”.

In the case of `CCC(=O)OCCc1ccccc1`, the Potency [4] was inconclusive: 65.7 µM [cytotoxic, single point], the Potency [6] was active: 13.6 µM and the Potency [3] was inconclusive: 38.3 µM [inhibitor, partial curve].

For `CCCCCCCCCCCCOC(=O)c1ccc(O)cc1`, the Potency [7] was active: 61.6 µM, the Potency [5] was inconclusive: 69.1 µM [cytotoxic, single point] and the Potency [10] was active: 4.02 µM. For the same compound, the Potency [9] was active: 35.9 µM.

In the case of `COCCOC(=O)C1=C(C)NC(C)=C(C(=O)OC(C)C)C1c1cccc([N+](=O)[O-])c1` (centres undefined), the Potency [5] was inconclusive: 33.5 µM [cytotoxic].

In the case of `CC(C)c1ccc(O)c(C(C)C)c1`, the Potency [4] was inconclusive: 68.6 µM [cytotoxic, single point], the Potency [6] was active: 35.6 µM and the Potency [11] was inconclusive: 61.6 µM [inhibitor, partial curve, poor fit]. For the same compound, the Potency [9] was inconclusive: 89.4 µM [inhibitor, single point].

For `CCC(C)c1ccccc1O` (centres undefined), the Potency [4] was inconclusive: 68.1 µM [cytotoxic, partial curve, poor fit], the Potency [6] was inconclusive: 70.5 µM [inhibitor, partial curve] and inconclusive: 63.3 µM [inhibitor, partial curve] and the Potency [3] was inconclusive: 56 µM [inhibitor, partial curve] and inconclusive: 35.6 µM [inhibitor, partial curve]. The Potency [9] was inconclusive: 63.3 µM [inhibitor, partial curve].

With `CC(C)CCCC(C)CCO` (centres undefined) the Potency [4] was “inactive” and the Potency [6] was inconclusive: 71 µM [inhibitor, partial curve].

For `CCCCCCCC/C=C/CCCOC(C)=O`, the Potency [4] was “inactive”, the Potency [10] was active: 31.7 µM and the Potency [6] was inconclusive: 44.8 µM [inhibitor, partial curve, poor fit]. For the same compound, the Potency [3] was inconclusive: 22.4 µM [inhibitor, full curve].

With `c1ccc2[nH]c(-c3cscn3)nc2c1` the Potency [4] was “inactive”, the Potency [2] was inconclusive: 40.2 µM [inhibitor, partial curve] and the Potency [6] was inconclusive: 35.6 µM [inhibitor, partial curve].

In the case of `COC(=O)C1=C(C)NC(C)=C(C(=O)OCCc2ccc(N3CCN(C(c4ccccc4)c4ccccc4)CC3)cc2)C1c1cccc([N+](=O)[O-])c1` (centres undefined), the Potency [4] was inconclusive: 33.5 µM [cytotoxic, single point] and the Potency [9] was inconclusive: 1.55 µM [inhibitor, full curve].

— PubChem BioAssay (Tox21)
